# Hit rate of the full screen: of about 360,000 compounds, about 2,600 (0.72%) were called active. The shares of active, inactive and inconclusive entries below differ from those in the screen. Calls follow the shape of the dose curve; as a rule, active = well fitted inhibition curve with a large enough effect; inconclusive = small, poorly fitted or top-dose-only effect; inactive = no such curve, though single readings can be large or run the other way. Potencies beside an inconclusive call are fits to weak or partial responses and may not hold up.
# Experiment: Primary qHTS for Inhibitors of ATXN expression; also: nearly all actives have a fitted effect of over 55% in size
# Details: HEK-293 ATXN2-luciferase reporter, luminescence, 24 h; series mostly up to 57 µM
# In short: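 qHTS (up to 57 uM final) was run with 24 h compound exposure of reporter cells at 37 °C. Each well was multiplexed: SteadyGlo luminescence measured ATXN2-luciferase expression after a fluorogenic Gly-Phe-AFC viability readout (25 uM final).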
# Potency is read from the fitted curve at half-maximal effect; tags tell the direction and shape of the fitted curve.
row,Compound,Potency
1,CC1CCN(C(=O)CSc2nnc3ccc(-c4cccnc4)nn23)CC1,inactive
2,Cc1onc(-c2ccccc2)c1C(=O)N/N=C/c1ccc([N+](=O)[O-])s1,"inconclusive: 28.2 µM [inhibitor, single point]"
3,CN1C(=O)/C(=C/c2ccccc2F)Sc2ccc(C(=O)N3CCCC3)cc21,"inconclusive: 25.1 µM [inhibitor, single point]"
4,CC1=C(C(=O)N2CCOCC2)CC(CC(=O)NCc2cccc3ccccc23)C(=O)N1Cc1ccc(C(C)(C)C)cc1 (centres undefined),"inconclusive: 25.1 µM [inhibitor, single point]"
5,CN(C)c1ccc(C(=S)N2CCCCC2)cc1,inactive
6,COc1cc(C(=O)NC(=S)NNC(=O)c2cnccn2)cc(OC)c1OC,"inconclusive: 39.8 µM [inhibitor, single point]"
7,COc1ccc(O)c(/C=N/N=C2/C(=O)Nc3ccccc32)c1,"inconclusive: 2.38 µM [inhibitor, partial curve, poor fit]"
8,CC(=O)OCC(=O)C1(O)CCC2C3CC(C)C4=CC(=O)C=CC4(C)C3(F)C(O)CC21C (centres undefined),inactive
9,CC(C)(C)c1ccc(OCCn2nc(C(=O)O)c3ccccc3c2=O)cc1,"inconclusive: 39.8 µM [inhibitor, single point]"
10,CCc1ccccc1NC(=S)N=Nc1c(O)n(C)c2ccc(S(=O)(=O)N3CCOCC3)cc12,"inconclusive: 11.2 µM [inhibitor, partial curve]"
11,CCCSc1ccc2nc(-c3ccccc3)cn2c1,"inconclusive: 12.6 µM [inhibitor, single point]"
12,CCN(N)C(=S)Nc1ccc(F)cc1,"inconclusive: 11.9 µM [inhibitor, partial curve, poor fit]"
13,Cc1c(C(=O)NCCC2=CCCCC2)oc2ccc(S(=O)(=O)N3CCOCC3)cc12,"inconclusive: 31.6 µM [inhibitor, single point]"
14,COc1cccc(CN2CCC2(C)C(=O)NCc2cccc(C(F)(F)F)c2)c1OC (centres undefined),"inconclusive: 31.6 µM [inhibitor, single point]"
15,Cc1nc2c(C)cccc2cc1C(=O)N/N=C/c1cccnc1,inactive
16,COc1ccc(-c2coc3cc4oc(=O)c5ccccc5c4cc23)cc1F,"inconclusive: 25.1 µM [inhibitor, partial curve, poor fit]"
17,COc1ccc(CNCCS(=O)(=O)NC2CCCCC2)cc1,inactive
18,CCCn1cc(S(=O)(=O)c2ccc(C)cc2)c(=O)c2cc(OC)ccc21,inactive
19,COc1ccc(O)c(/C=N/NC(=S)Nc2cccc(S(=O)(=O)N(C)C)c2)c1,"inconclusive: 5.01 µM [inhibitor, partial curve]"

# From PubChem BioAssay AID1745845 (National Center for Advancing Translational Sciences (NCATS), 2022)
